# Assay results taken from PubChem BioAssay AID488969 (Vanderbilt High Throughput Screening Facility, 2010).
# In all, about 110,000 compounds were measured (“z-score”: median about -0.1, highest 2% from about 2 on). The list shows a part of the results. Active and inactive are the calls of the source.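 The calls were made as follows: active = z-score in the third read window above 3 or below -3; inactive = the rest.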
# Target: Metabotropic glutamate receptor 8 (Rattus norvegicus) (UniProt P70579)
# Sequence of UniProt P70579 (P70579 whole entry, looked up): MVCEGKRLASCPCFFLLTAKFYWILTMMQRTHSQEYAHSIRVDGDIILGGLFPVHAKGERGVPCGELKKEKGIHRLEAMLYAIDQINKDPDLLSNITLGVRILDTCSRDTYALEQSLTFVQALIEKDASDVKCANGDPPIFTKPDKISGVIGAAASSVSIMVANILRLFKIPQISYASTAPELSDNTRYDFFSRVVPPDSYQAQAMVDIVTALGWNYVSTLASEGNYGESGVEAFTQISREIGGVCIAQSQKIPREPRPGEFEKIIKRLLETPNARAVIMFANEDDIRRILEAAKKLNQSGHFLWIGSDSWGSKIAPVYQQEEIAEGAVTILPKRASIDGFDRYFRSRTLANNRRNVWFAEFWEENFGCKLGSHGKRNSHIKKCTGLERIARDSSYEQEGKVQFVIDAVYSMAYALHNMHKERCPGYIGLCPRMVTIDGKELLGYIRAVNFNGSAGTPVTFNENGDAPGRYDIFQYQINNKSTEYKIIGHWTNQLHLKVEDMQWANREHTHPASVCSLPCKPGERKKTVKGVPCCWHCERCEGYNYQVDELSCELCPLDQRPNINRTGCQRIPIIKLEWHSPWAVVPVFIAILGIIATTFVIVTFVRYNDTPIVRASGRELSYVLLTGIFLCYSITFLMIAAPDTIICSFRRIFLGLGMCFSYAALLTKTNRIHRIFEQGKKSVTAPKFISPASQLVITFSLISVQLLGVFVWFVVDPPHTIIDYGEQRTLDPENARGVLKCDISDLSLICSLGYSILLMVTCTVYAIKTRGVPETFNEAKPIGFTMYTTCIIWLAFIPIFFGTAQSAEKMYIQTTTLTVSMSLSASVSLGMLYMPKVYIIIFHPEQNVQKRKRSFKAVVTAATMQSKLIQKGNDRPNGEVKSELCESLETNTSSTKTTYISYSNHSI
# Test: mGluR8 Gi/Go-coupled signaling modulation – cell-based, rat, thallium flux, HTS, primary screen (AID 488969)
# Settings: HEK293 rat mGluR8, GIRK (G protein-gated inwardly rectifying potassium channel) thallium flux, FluoZin2; at 10 µM; stronger effect = higher value; submaximal glutamate (EC20) added with thallium
row,Structure (SMILES),z-score
1,Cc1nc2oc3c(NCc4ccccc4)ncnc3c2c2c1COC(C)(C)C2,-0.383
2,CCc1ccc2nc(SCC(=O)N(CC)CC)c(C#N)cc2c1,-0.271
3,O=C(Nc1ccccc1)N1C(=O)C2(OCCO2)c2ccccc21,0.828
4,CCOc1ccc(S(=O)(=O)Nc2cc(Sc3ncn[nH]3)c3oc(=O)sc3c2)cc1,-1.07
5,CCCCC1(Cc2ccc(OC)c([N+](=O)[O-])c2)C(=O)N(c2ccccc2)N(c2ccccc2)C1=O,-0.162
6,COc1ccc(OCC(=O)Nc2ccc(C)cc2)cc1,-0.351
7,Cc1nn(Cc2c(Cl)cccc2Cl)c(C)c1NC(=O)c1cc(C(C)C)on1,-0.283
8,Nc1nc(SCC(=O)Nc2cccc(Oc3ccccc3)c2)n[nH]1,-0.397
9,O=C(Nc1ccccc1-c1nc2ccccc2[nH]1)c1sc2ccccc2c1Cl,-0.246
10,COc1ccc(F)cc1S(=O)(=O)N1CC(C)CC(C)C1 (configuration not stated),0.0802
11,S=c1[nH]nc(-c2cc(-c3ccco3)[nH]n2)n1-c1cccc2ccccc12,-1.1
12,COc1ccc2cc(C#N)c(SCC(=O)NNC(=O)Cc3ccccc3)nc2c1,0.337
13,COc1cc(OC)nc(Oc2ccccc2C(=O)Oc2ccccc2Cl)n1,-0.567
14,Cc1nn(-c2ccccc2)c2sc(C(=O)NNC(=O)COc3ccccc3)cc12,1.64
15,Cc1ccc(C)c(CN2C(=O)C(C)Oc3ccc(C)cc32)c1 (configuration not stated),-0.123
16,O=C1NN(c2ccccc2)C(=O)/C1=C\c1cccc(OC(=O)c2cccs2)c1,-0.349
17,CCCS(=O)(=O)C(=C(Nc1ccccc1)Nc1ccccc1)S(=O)(=O)CCC,0.19
18,COc1ccc(NC(=O)N2CCC(c3ccccc3)C2)c(OC)c1 (configuration not stated),-0.436
19,COCCn1nnnc1SCC(=O)c1ccc(F)cc1,0.0292
20,COC(=O)c1ccccc1NC(=O)CN1CCN(C(=O)c2ccco2)CC1,0.296
21,CCCCn1c(-c2cccnc2)n[nH]c1=S,-0.106
22,N#Cc1nc(-c2ccco2)oc1N1CCC(Cc2ccccc2)CC1,0.453
23,COc1ccc(-n2cnnc2SCC(=O)N2CCN(S(=O)(=O)c3ccccc3)CC2)cc1,-0.105
24,CCC(C)NC(=O)c1cn(-c2cccc(C)n2)cn1 (configuration not stated),0.0167

row,Structure (SMILES),z-score
1,CCCCCCCCC[n+]1cccc2c3ccccc3ccc21,0.767
2,CC(C)NC(=O)c1cccc(C(F)(F)F)c1,-0.244
3,CCCOc1ccc(-c2nc(N)n[nH]2)cc1,-0.113
4,CSc1nc(-c2ccccc2)nn1C(=O)c1ccc(C)cc1,-0.0769
5,O=C(CSc1nnc(-c2ccccc2)o1)NCC1CCCCC1,0.283
6,Cc1ccc(-c2nnc(NCc3ccccc3)c3ccccc23)cc1,-0.103
7,O=C1S/C(=C/c2ccc(N3CCOCC3)o2)C(=O)N1Cc1c(F)cccc1Cl,0.332
8,Cc1cc(C)nc(N/N=C/c2ccccc2OCc2ccc(Br)cc2)n1,-0.137
9,O=C(COC(=O)c1cccnc1)c1ccc(Cl)cc1,0.137
10,Cn1c(=O)n(C)c2cc([N+](=O)[O-])c(N3CCN(S(=O)(=O)c4ccccc4)CC3)cc21,-0.392
11,O=C(c1ccc(C(=O)N2CCCc3ccccc32)s1)N1CCCc2ccccc21,0.715
12,CCCCOc1ccc(C2C3CN(C(=O)OCC)CC=C3C(C#N)=C(N)C2(C#N)C#N)cc1OC (configuration not stated),-0.6
13,FCCCOc1ccc(-c2nccc(-c3ccc(Cl)cc3)n2)cc1,-0.0154
14,Cc1cccc(NC(=S)NCC(c2cccnc2)N(C)C)c1 (configuration not stated),0.286
15,Cc1ccc(OCC(=O)N/N=C/C=C/c2ccco2)cc1C,-0.222
16,Cc1cc(NC(=O)CSc2ccc3nnc(-c4ccccn4)n3n2)no1,-0.369
17,CCOc1ccc(C(C)=O)cc1N1C(=O)C2C3C=CC(C3)C2C1=O (configuration not stated),-0.533
18,C=C(C)Cn1c(COc2ccccc2)nnc1SCC(=O)O,0.875
19,O=C(COc1ccccc1)NCCSc1ccccc1,0.0028
20,CCOC(=O)C1=C(C(C)=O)C(c2cccnc2)C(C#N)=C(N)O1 (configuration not stated),0.0356
21,Cc1cc2nc(C)n(CCCNC(=O)Nc3cccc4ccccc34)c2cc1C,-0.0533
22,CCOc1cc(C(=O)NC(C)c2ccncc2)cc(OCC)c1OCC (configuration not stated),0.0433
23,CCC1Sc2ccccc2N(CC(=O)NCc2ccccc2OC)C1=O (configuration not stated),-0.286
24,c1ccc(CNc2nc3ccccc3n3cnnc23)nc1,0.803

row,Structure (SMILES),z-score
1,Cc1cccc2sc(N(CCN(C)C)C(=O)c3cc(Cl)sc3Cl)nc12,-0.0963
2,Cc1ccc(OCCN2CCN(C)CC2)c([N+](=O)[O-])c1,-0.333
3,CC1(C)CCCC2=C1CC1C(=O)N(O)C(=O)C1C2 (configuration not stated),-0.385
4,CC(C)OC(=O)C1=C2SCC(=O)N2C(N)=C(C#N)C1,-0.00665
5,CC(C)CC(=O)NCc1ccc(F)cc1,-0.107
6,COC(=O)c1sc(NC(=O)COc2cccc3ccccc23)nc1C,-0.0727
7,COc1ccc(CNC(=O)c2sc3nc4c(c(C(F)(F)F)c3c2N)CCC4)cc1OC,0.382
8,CCO/C=C/C(=O)N(C)CCC#N,-0.097
9,Cc1nc(CN2CCCC2=NC#N)n(-c2ccccc2)n1,1.36
10,c1ccc(N=P(N2CCOCC2)(N2CCOCC2)N2CCOCC2)cc1,0.159
11,COc1ccc(C2=CSC(/N=C/c3ccc(F)cc3)=NN2)cc1,0.278
12,O=C(CSc1ccc2c(c1)OCCO2)NCCc1ccc(Cl)cc1Cl,-0.245
13,O=C(NCc1cccs1)c1cccnc1C(=O)O,active: 5.74
14,Cc1ccc(Cn2ccc(-c3cnc(-c4ccccc4)s3)n2)cc1,-0.462
15,COC(=O)NCc1ccc(S(=O)(=O)N2CCOCC2)cc1,0.235
16,O=C(NC(=S)Nc1cc(Cl)ccc1N1CCOCC1)c1ccc(-c2cccc(Cl)c2)o1,-0.0121
17,CCc1nc(C)cn1S(=O)(=O)c1cc(C)c(OC)c(C)c1C,0.091
18,Cc1cc(NC(=O)CCC(=O)N(c2ccccc2)C2(C(=O)NC3CCCCC3)CCCC2)no1,-1.15
19,CCOC(=O)c1sc(NC(=O)COc2ncnc3ccccc23)c(C(=O)OCC)c1C,-0.152
20,COc1ccc(NS(=O)(=O)c2ccc(NS(=O)(=O)c3ccc(SC)cc3)cc2)c(OC)c1,-0.182
21,CCN(CC)CCNS(=O)(=O)c1ccc(OC)c(Br)c1,-0.27
22,COc1cc(OC)cc(C(=O)N[C@H](C(=O)NC23CC4CC(CC(C4)C2)C3)C(C)C)c1,-0.138
23,COc1cc(Cl)c(C)cc1NC(=O)COC(=O)c1cc(SC)ccc1Cl,-0.239
24,COc1cccc(NC(=O)CSC2=C(C#N)C(c3ccco3)C3=C(CCCC3=O)N2)c1 (configuration not stated),-2.29
